Here are results for 15 cell lines from the supplement of paper PMC4967469.

By IC50 is commonly meant the concentration at which inhibition is half-maximal.

Holding throughout (experiment): Viability of human cancer cell lines after 72 h of drug (GDSC screen)
Compound in assay [1]: CCc1cc(Nc2nccc(-c3c(-c4ccc(OC)c(C(=O)Nc5c(F)cccc5F)c4)nc4ccccn34)n2)c(OC)cc1N1CCC(N2CCN(S(C)(=O)=O)CC2)CC1 [GSK-1904529A]
The settings on record: top dose 1.024 µM; top dose inferred. On the procedure:
(§1)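 Human cancer cell lines in 384-well plates, medium with 10% serum, drug for 72 h over a 256-fold dose range (nine 2-fold or five 4-fold steps up to the top dose). Adherent lines were fixed and stained with the nucleic acid dye Syto60, suspension lines read with resazurin; signal relative to control wells, capped at 0 and 100%. One two-parameter sigmoid per drug and line, fitted in a mixed model over all curves with the slope shared within a line.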

Compound in assay [2]: Cn1cncc1[C@@](N)(c1ccc(Cl)cc1)c1ccc2c(c1)c(-c1cccc(Cl)c1)cc(=O)n2C [Tipifarnib]
The settings on record: top dose 16 µM; top dose inferred. On the procedure:
as §1

Compound in assay [3]: COc1ccccc1S(=O)(=O)Nc1ccc2c(c1)CN(C)C(=O)N2 [PFI-1]
The settings on record: top dose 10 µM; top dose inferred. As for the experimental part: as §1

Compound in assay [4]: CCN1CCN(Cc2ccc(NC(=O)c3ccc(C)c(Oc4ccnc5[nH]ccc45)c3)cc2C(F)(F)F)CC1 [NG-25]
As to conditions: top dose 10.24 µM; top dose inferred. On the procedure:
as §1

IC50 is the fitted dose that halves viability relative to control wells, and lower means more sensitive; where the fit passes the top or lowest dose, that dose stands as a limit. The AUC spans the tested range (256-fold, ending at the top dose) of the same fit; it is 1 without any effect and falls as sensitivity rises. A top dose marked as inferred is not printed in the source and was worked back from the curve model.

Regarding H3118 (head and neck, adherent), the AUC in assay [1] turned out to be 0.969; in assay [2], 0.528; in assay [3] it was 0.794; in assay [4], 0.88. Besides, the IC50 is greater than 1.02 µM in assay [1], 1.2 µM in assay [2], 5.07 µM in assay [3] and greater than 10.2 µM in assay [4].
As to SW780 (bladder, adherent), the AUC amounted to 0.983 in assay [1], 0.969 in assay [2], 0.796 in assay [3] and 0.971 in assay [4]. Also, the half-inhibitory concentration (IC50) in assay [1] is greater than 1.02 µM; in assay [2], greater than 16 µM; in assay [3], 5.19 µM; in assay [4], greater than 10.2 µM.
Turning to SW948 (large intestine, adherent), the AUC turned out to be 0.982 in assay [1], 0.975 in assay [2], 0.979 in assay [3] and 0.944 in assay [4]. The concentration for half-maximal inhibition (IC50) in assay [1] was greater than 1.02 µM; in assay [2], greater than 16 µM; in assay [3], greater than 10 µM; in assay [4] it was greater than 10.2 µM.
In the case of MC-IXC (neuroblastoma, adherent), the AUC in assay [1] was 0.994; in assay [2], 0.688; in assay [3], 0.996; in assay [4], 0.885. Further, the half-maximal inhibitory concentration (IC50) was greater than 1.02 µM in assay [1], 2.87 µM in assay [2], greater than 10 µM in assay [3] and 6.15 µM in assay [4].
For HO-1-u-1 (head and neck, adherent), the AUC in assay [1] was determined as 0.981; in assay [2] it was 0.807; in assay [3] it was 0.899; in assay [4], 0.934. For the same cell line, the half-maximal inhibitory concentration (IC50) in assay [1] is greater than 1.02 µM; in assay [2], 7.81 µM; in assay [3] it was greater than 10 µM; in assay [4], greater than 10.2 µM.
With CAL-85-1 (breast, adherent), the AUC in assay [1] was determined as 0.966; in assay [2], 0.525; in assay [3], 0.839; in assay [4] it was 0.784. Moreover, the IC50 in assay [1] is greater than 1.02 µM; in assay [2], 1.19 µM; in assay [3], 9.86 µM; in assay [4] it was 5.71 µM.
Consider BPH-1 (prostate, adherent), for which the AUC in assay [1] worked out at 0.98; in assay [2], 0.605; in assay [3] it was 0.684; in assay [4] it was 0.867. Also, the IC50 was greater than 1.02 µM in assay [1], 2 µM in assay [2], 2.17 µM in assay [3] and greater than 10.2 µM in assay [4].
On to CCK-81 (large intestine, adherent), for which the AUC in assay [1] was found to be 0.979; in assay [2], 0.833; in assay [3], 0.986; in assay [4], 0.88. The IC50 was greater than 1.02 µM in assay [1], 9.46 µM in assay [2], greater than 10 µM in assay [3] and 9.51 µM in assay [4].
Consider MKN28 (stomach, adherent), for which the AUC in assay [1] worked out at 0.966; in assay [2] it was 0.49; in assay [3] it was 0.811; in assay [4], 0.862. For the same cell line, the IC50 was greater than 1.02 µM in assay [1], 0.941 µM in assay [2], 5.47 µM in assay [3] and 9.07 µM in assay [4].
With ACHN (kidney, adherent), the AUC is 0.952 in assay [1], 0.502 in assay [2], 0.899 in assay [3] and 0.867 in assay [4]. Moreover, the IC50 in assay [1] is greater than 1.02 µM; in assay [2] it was 1.01 µM; in assay [3], greater than 10 µM; in assay [4] it was greater than 10.2 µM.
Regarding U251 (glioma, adherent), the AUC turned out to be 0.982 in assay [1], 0.751 in assay [2], 0.821 in assay [3] and 0.822 in assay [4]. The concentration for half-maximal inhibition (IC50) in assay [1] is greater than 1.02 µM; in assay [2], 5.06 µM; in assay [3] it was 5.44 µM; in assay [4], 5.62 µM.
As for HSC-2 (head and neck, adherent), the AUC in assay [1] is 0.988; in assay [2], 0.75; in assay [3] it was 0.826; in assay [4], 0.945. Besides, the 50% inhibitory concentration (IC50) is greater than 1.02 µM in assay [1], 4.88 µM in assay [2], 5.45 µM in assay [3] and greater than 10.2 µM in assay [4].
Turning to H3255 (lung adenocarcinoma, adherent), the AUC in assay [1] was determined as 0.979; in assay [2] it was 0.718; in assay [3], 0.914; in assay [4] it was 0.977. Also, the 50% inhibitory concentration (IC50) in assay [1] was greater than 1.02 µM; in assay [2] it was 4.73 µM; in assay [3], greater than 10 µM; in assay [4] it was greater than 10.2 µM.
With 786-0 (kidney, adherent), the AUC in assay [1] came out at 0.952; in assay [2] it was 0.191; in assay [3], 0.865; in assay [4] it was 0.863. The concentration for half-maximal inhibition (IC50) is greater than 1.02 µM in assay [1], 0.133 µM in assay [2], 7.68 µM in assay [3] and 7.68 µM in assay [4].
In the case of DoTc2-4510 (cervix, adherent), the AUC amounted to 0.961 in assay [1], 0.555 in assay [2], 0.908 in assay [3] and 0.943 in assay [4]. The IC50 in assay [1] is greater than 1.02 µM; in assay [2], 1.4 µM; in assay [3] it was greater than 10 µM; in assay [4], greater than 10.2 µM.
